First the molecules themselves.
B1: TPR 5TU (parent)
chain: GGAUCUUCUCGAUCUAACAAAAAAGACAAAUCUGCCACAAAGCUUGAGAGCAUCUUCGGAUGCAGAGGCGGCAGCCUUCGGUGGCGCGAUAGCGCCAACGUUCUCAACUAUGACACGCAAAACGCGUGCUCCGUUGAAUGGAGUUUAUCAUG

This sample is rich in variants without activity. Where only a bound is given, the exact number is not on record here.

The data set covers variants of B1. The experiment in a line: polymerase ribozyme fitness, log enrichment relative to wild type (log ratio); higher = more active; in vitro selection for triplet polymerase activity. In a few lines:
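One round of in vitro selection, in triplicate, was applied to PCR-built, transcribed mutant libraries of each subunit of a heterodimeric triplet polymerase ribozyme. The steps were annealing with a biotinylated primer, partner subunit and triplets, incubation frozen at −7 °C, gel excision of extended constructs, streptavidin-bead capture and RT-PCR. Fitness is the logarithm, base 2, of genotype enrichment over wild-type enrichment from inverse-variance-weighted replicate averages of Illumina-sequenced inputs and outputs, keeping genotypes with ≥10 input reads and ≥1 read per output.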
On to A3U U55A G59A G80C C87A U102C C118G, for which the “polymerase ribozyme fitness (log ratio)” value is at most -4.2.
Under U4C C10U A24U G62U C93G stands at most -4.2; under U4G C35U C69A C87A C95A C103A C118G C131A, at most -4.2.
For U4C A21G G42A G48C G50C A64U G84C U102G U127A, the “polymerase ribozyme fitness (log ratio)” value is at most -4.2.
Under U4G A64U C93G U148A stands at most -4.2.
Under C5A A23G A41C G88A U102C U151C stands at most -4.2; under A3U U82G, -0.249.
In the case of U4C G50C U56A G74A C87A G88U C116U, the “polymerase ribozyme fitness (log ratio)” value was at most -4.2.
Under U4G G48U G84A C93A G133A G141C stands at most -4.2; under U4A A91G C114G G124A, at most -4.2; under U4G C54G C95G, -3.63.
Under U4C C5G U55A C75A G88C G133U stands -4.17; under U4A A17C G94A C149U, -1.61; under U4A A19U G128U U130A, at most -4.2.
Consider U4A A20G C93G, for which the “polymerase ribozyme fitness (log ratio)” value is at most -4.2.
Under U4A A17U A28G stands at most -4.2; under U4C G94C C116G, -0.818; under U4C U7G C27U U31A G68U G88U, at most -4.2.
Under U4G A23U A29U C35U U77A C99A C125G U134G stands at most -4.2; under U4C C32U C93U A115U, at most -4.2.
Under U4C A17G U55A A66G G88C U127G stands at most -4.2.
Take U4G U9A A22C G83U C95A C116A U151A: the “polymerase ribozyme fitness (log ratio)” value is at most -4.2.
In the case of U4C A39G U82C A107U, the “polymerase ribozyme fitness (log ratio)” value was at most -4.2.
Consider U4G A21C C96G U139G G140U C149A, for which the “polymerase ribozyme fitness (log ratio)” value is at most -4.2.
Consider U4C A17C G42A G50C U53A G62A U90G A120U, for which the “polymerase ribozyme fitness (log ratio)” value is at most -4.2.
Under U4A A24C C38A U53C C95U C132U stands at most -4.2; under U4C A17U G50U G58A G92C C99U G117U, at most -4.2.
Under C5A A23U C38U G92C A138U U148G stands at most -4.2; under U4C A17U C85A C96U A137U U144A, at most -4.2; under U4C G42A G92A A120G G126C G141A, at most -4.2.
Under C5A A16U G59U stands -1.5; under C5A A19U A120U C125U U135C A137C, at most -4.2; under U4G A41C A137C, at most -4.2.
For U4A U7A U55A U61A C76A G94A, the “polymerase ribozyme fitness (log ratio)” value was at most -4.2.
On to U4G C85U, for which the “polymerase ribozyme fitness (log ratio)” value is -0.873.
Under U4C G50A G68U G86A stands at most -4.2.
Under U4C C35G A60C C108G stands at most -4.2; under U4G A26U G50U C87A G141A A150U, at most -4.2; under U4A C32U A40U G59U A60U U61G G68A C72G C87U G94C C95U, at most -4.2.
Under U4A G48A C85A C93A A147C stands at most -4.2.
Take U4C C10A A12U U53A G88C C96A: the “polymerase ribozyme fitness (log ratio)” value was at most -4.2.
Under U4A C8A A20U A29C A40G G70C U101A A120U stands at most -4.2; under U4C A52U U82G C96A, -3.56; under C5A A23G A66C C79A C85G G92U U102A A137G, at most -4.2.
Under U4G A20C G48A G62U C85G C96U U127C stands at most -4.2; under U4A C8G U53G G71U A73G C79G C85G C87A G88U G92U A115G, at most -4.2.
Under U4G U56A C72A C87G C99U stands at most -4.2.
On to U4C C14U G42A G84A C105G, for which the “polymerase ribozyme fitness (log ratio)” value was at most -4.2.
Under U4G A21G A29G A60U A66G C93A C116A U146C stands at most -4.2; under U4G A49U C51G A120U A121G, at most -4.2; under U4G C8G C14G A24G U45A C85A G86U G140A U145A U146C, at most -4.2.
Regarding U4A C54U G92U C118U U134A, the “polymerase ribozyme fitness (log ratio)” value was -3.6.
For the variant U4G U7C A30C C38U A98G, the “polymerase ribozyme fitness (log ratio)” value was at most -4.2.
Regarding U4G C5G A28C G46U C108G C129G, the “polymerase ribozyme fitness (log ratio)” value was at most -4.2.
Turning to U4A A24G G50U G83C C85U A98G, the “polymerase ribozyme fitness (log ratio)” value was at most -4.2.
Under U4A A16G A37U A91G G124U stands at most -4.2; under A3U U56A A73G C85G G86A, at most -4.2.
Under U4G C75G A91U G92A U101G U146C stands at most -4.2; under U4C C14U U15A A41C C93A C95U, at most -4.2; under U4G A24G A47C C51A C54A C76G U82G G86U A115G, at most -4.2.
Under U4C U7C A17U A41C G68C U78A C99A C103G stands at most -4.2; under U4C U9A A16U C85U U101G A122C A150G, at most -4.2.
As for U4A C10G A24U A37U C93U C114G C129U, the “polymerase ribozyme fitness (log ratio)” value was at most -4.2.
Under U4C C35U U55G C76G G133C U135G stands at most -4.2.
Under U4G A22U G50C G86U C132G stands at most -4.2.
Under U4G C32G C87U stands at most -4.2; under U4A U56A A66G C85A U144C, at most -4.2.
Turning to C5A A16U G46C G84U A91G U109C A115U G136C, the “polymerase ribozyme fitness (log ratio)” value is at most -4.2.
With U4C C35G A37G A39C G48A U61G U82C G84U, the “polymerase ribozyme fitness (log ratio)” value is at most -4.2.
Take U4G U33A C54G U56A C118U A121U G126A: the “polymerase ribozyme fitness (log ratio)” value was at most -4.2.
With U4C U9A A17G A47C A52C G68C A73U G80A C85G G94A U102G A106G A107C U109G U145A, the “polymerase ribozyme fitness (log ratio)” value is at most -4.2.
Under U4C A49C A52C C99A C132U G136U G140U stands at most -4.2; under U4A C36A G48C G86A, at most -4.2; under U4A G143U, -3.47.
Under U4C U9A C43U A66C G86A C114G A119U A137U A150G stands at most -4.2; under U4C C38U U55G C87A A106G, at most -4.2.
Under U4C A22C C32G G86C A91C C95G stands at most -4.2; under U4A A60C G71U G92C C108G G117A G124U A137C, at most -4.2.
Consider U4C A29C C43U G50C C95A A113G A121C, for which the “polymerase ribozyme fitness (log ratio)” value is at most -4.2.
Under U4A A24G U53A U55G G83U G84C C87U stands at most -4.2.
Under U4G A16U U90C A91G G124A U144A stands at most -4.2; under U4C C5U A23C A47C C79A C85G U90C G117U G152U, at most -4.2.
Under C5A A16C C57U G80C A89U C96A C118U U146G A147U stands at most -4.2; under U4C U53G G92U U104A A106C, at most -4.2.

The values above are taken from the RNAGym collection of RNA variant scans (doi:10.1073/pnas.2313332121).
